# Measurements published in the supplement of paper PMC8728848.
# The other results are listed elsewhere or left out.
# How the values were obtained:
# Assay in all cases: glycan array binding signal (z-score within array); higher = stronger binding
# Conditions in all cases: glycan notation: IUPAC condensed, linker removed; mutation: H59Q
# [1] = target: Neu5Ac(a2-3)Gal(b1-4)GlcNAc(b1-2)Man(a1-3)[Neu5Ac(a2-6)Gal(b1-4)GlcNAc(b1-2)Man(a1-6)]Man(b1-4)GlcNAc(b1-4)GlcNAc
# Summary of the method: (§1)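 Glycan array data were curated from 3228 arrays in the Consortium for Functional Glycomics database and kept only where the protein sequence was available. Glycan names were converted to IUPAC-condensed notation, and columns mapping to the same glycan were averaged. The binding signal is a within-array Z-score, averaged across arrays of the same protein sequence at different concentrations or buffers and across linkers. Negative Z-scores can be read as non-binding.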
# [2] = target: Neu5Ac(a2-3)Gal(b1-4)GlcNAc(b1-2)[Neu5Ac(a2-3)Gal(b1-4)GlcNAc(b1-4)]Man(a1-3)[GlcNAc(b1-4)][Neu5Ac(a2-3)Gal(b1-4)GlcNAc(b1-2)[Neu5Ac(a2-3)Gal(b1-4)GlcNAc(b1-6)]Man(a1-6)]Man(b1-4)GlcNAc(b1-4)GlcNAc
# Summary of the method: as §1
# [3] = target: Neu5Ac(a2-3)Gal(b1-4)GlcNAc(b1-2)[Neu5Ac(a2-3)Gal(b1-4)GlcNAc(b1-4)]Man(a1-3)[GlcNAc(b1-4)][Neu5Ac(a2-3)Gal(b1-4)GlcNAc(b1-4)Man(a1-6)]Man(b1-4)GlcNAc(b1-4)GlcNAc
# Summary of the method: as §1
# [4] = target: Neu5Ac(a2-3)Gal(b1-4)GlcNAc(b1-2)[Neu5Ac(a2-3)Gal(b1-4)GlcNAc(b1-6)]Man(a1-6)[Neu5Ac(a2-3)Gal(b1-4)GlcNAc(b1-2)Man(a1-3)][GlcNAc(b1-4)]Man(b1-4)GlcNAc(b1-4)GlcNAc
# Summary of the method: as §1
# [5] = target: Neu5Ac(a2-3)Gal(b1-4)GlcNAc(b1-3)Gal
# Summary of the method: as §1
# [6] = target: Neu5Ac(a2-3)Gal(b1-4)GlcNAc(b1-3)Gal(b1-3)GlcNAc
# Summary of the method: as §1
# [7] = target: Neu5Ac(a2-3)Gal(b1-4)GlcNAc(b1-3)Gal(b1-4)GlcNAc
# Summary of the method: as §1
# [8] = target: Neu5Ac(a2-3)Gal(b1-4)GlcNAc(b1-3)Gal(b1-4)GlcNAc(b1-2)Man(a1-3)[Neu5Ac(a2-3)Gal(b1-4)GlcNAc(b1-3)Gal(b1-4)GlcNAc(b1-2)Man(a1-6)]Man(b1-4)GlcNAc(b1-4)GlcNAc
# Summary of the method: as §1
# [9] = target: Neu5Ac(a2-3)Gal(b1-4)GlcNAc(b1-3)Gal(b1-4)GlcNAc(b1-3)Gal(b1-4)GlcNAc
# Summary of the method: as §1
# [10] = target: Neu5Ac(a2-3)Gal(b1-4)GlcNAc(b1-3)Gal(b1-4)GlcNAc(b1-3)Gal(b1-4)GlcNAc(b1-2)Man(a1-3)[Neu5Ac(a2-3)Gal(b1-4)GlcNAc(b1-3)Gal(b1-4)GlcNAc(b1-3)Gal(b1-4)GlcNAc(b1-2)Man(a1-6)]GalNAc
# Summary of the method: as §1
# [11] = target: Neu5Ac(a2-3)Gal(b1-4)GlcNAc(b1-3)Gal(b1-4)GlcNAc(b1-3)GalNAc
# Summary of the method: as §1
# [12] = target: Neu5Ac(a2-3)Gal(b1-4)GlcNAc(b1-3)Gal(b1-4)GlcNAc(b1-3)[Neu5Ac(a2-3)Gal(b1-4)GlcNAc(b1-3)Gal(b1-4)GlcNAc(b1-6)]GalNAc
# Summary of the method: as §1
# [13] = target: Neu5Ac(a2-3)Gal(b1-4)GlcNAc(b1-3)Gal(b1-4)GlcNAc(b1-6)[Gal(b1-3)]GalNAc
# Summary of the method: as §1
# [14] = target: Neu5Ac(a2-3)Gal(b1-4)GlcNAc(b1-3)Gal(b1-4)[Fuc(a1-3)]GlcNAc
# Summary of the method: as §1
# [15] = target: Neu5Ac(a2-3)Gal(b1-4)GlcNAc(b1-3)GalNAc
# Summary of the method: as §1
# [16] = target: Neu5Ac(a2-3)Gal(b1-4)GlcNAc(b1-3)[Neu5Ac(a2-3)Gal(b1-4)GlcNAc(b1-6)]GalNAc
# Summary of the method: as §1
# [17] = target: Neu5Ac(a2-3)Gal(b1-4)GlcNAc(b1-6)GalNAc
# Summary of the method: as §1
# [18] = target: Neu5Ac(a2-3)Gal(b1-4)GlcNAc(b1-6)[Gal(b1-3)]GalNAc
# Summary of the method: as §1
# [19] = target: Neu5Ac(a2-3)Gal(b1-4)GlcNAc(b1-6)[Neu5Ac(a2-3)Gal(b1-3)]GalNAc
# Summary of the method: as §1
# [20] = target: Neu5Ac(a2-3)Gal(b1-4)GlcNAc6S
# Summary of the method: as §1
# [21] = target: Neu5Ac(a2-3)Gal(b1-4)[Fuc(a1-3)]GlcNAc
# Summary of the method: as §1
# [22] = target: Neu5Ac(a2-3)Gal(b1-4)[Fuc(a1-3)]GlcNAc(b1-2)Man
# Summary of the method: as §1
# [23] = target: Neu5Ac(a2-3)Gal(b1-4)[Fuc(a1-3)]GlcNAc(b1-3)Gal
# Summary of the method: as §1
# [24] = target: Neu5Ac(a2-3)Gal(b1-4)[Fuc(a1-3)]GlcNAc(b1-3)Gal(b1-4)GlcNAc
# Summary of the method: as §1
# [25] = target: Neu5Ac(a2-3)Gal(b1-4)[Fuc(a1-3)]GlcNAc(b1-3)Gal(b1-4)[Fuc(a1-3)]GlcNAc(b1-3)Gal(b1-4)[Fuc(a1-3)]GlcNAc
# Summary of the method: as §1
# [26] = target: Neu5Ac(a2-3)Gal(b1-4)[Fuc(a1-3)]GlcNAc(b1-3)GalNAc
# Summary of the method: as §1
# [27] = target: Neu5Ac(a2-3)Gal(b1-4)[Fuc(a1-3)]GlcNAc(b1-6)[Gal(b1-3)]GalNAc
# Summary of the method: as §1
# [28] = target: Neu5Ac(a2-3)Gal(b1-4)[Fuc(a1-3)]GlcNAc(b1-6)[Neu5Ac(a2-3)Gal(b1-3)]GalNAc
# Summary of the method: as §1
# [29] = target: Neu5Ac(a2-3)Gal(b1-4)[Fuc(a1-3)]GlcNAc6S
# Summary of the method: as §1
# [30] = target: Neu5Ac(a2-3)Gal6S(b1-4)GlcNAc
# Summary of the method: as §1
# [31] = target: Neu5Ac(a2-3)Gal6S(b1-4)[Fuc(a1-3)]GlcNAc
# Summary of the method: as §1
# Neu5Ac(a2-3)GalNAc = target: Neu5Ac(a2-3)GalNAc
# Summary of the method: as §1
# [32] = target: Neu5Ac(a2-3)GalNAc(b1-4)GlcNAc
# Summary of the method: as §1
# [33] = target: Neu5Ac(a2-3)[GalNAc(b1-4)]Gal(b1-4)Glc
# Summary of the method: as §1
# [34] = target: Neu5Ac(a2-3)[GalNAc(b1-4)]Gal(b1-4)GlcNAc
# Summary of the method: as §1
# [35] = target: Neu5Ac(a2-3)[GalNAc(b1-4)]Gal(b1-4)GlcNAc(b1-3)GalNAc
# Summary of the method: as §1
# [36] = target: Neu5Ac(a2-3)[Neu5Ac(a2-6)]GalNAc
# Summary of the method: as §1
# Neu5Ac(a2-6)Gal = target: Neu5Ac(a2-6)Gal
# Summary of the method: as §1
# [37] = target: Neu5Ac(a2-6)Gal(b1-3)GlcNAc(b1-3)[Gal(b1-4)GlcNAc(b1-6)]Gal(b1-4)Glc
# Summary of the method: as §1
# Neu5Ac(a2-6)Gal(b1-4)Glc = target: Neu5Ac(a2-6)Gal(b1-4)Glc
# Summary of the method: as §1
# [38] = target: Neu5Ac(a2-6)Gal(b1-4)GlcNAc
# Summary of the method: as §1
# [39] = target: Neu5Ac(a2-6)Gal(b1-4)GlcNAc(b1-2)Man
# Summary of the method: as §1
# [40] = target: Neu5Ac(a2-6)Gal(b1-4)GlcNAc(b1-2)Man(a1-3)Man(b1-4)GlcNAc(b1-4)GlcNAc
# Summary of the method: as §1
# [41] = target: Neu5Ac(a2-6)Gal(b1-4)GlcNAc(b1-2)Man(a1-3)[Gal(b1-4)GlcNAc(b1-2)Man(a1-6)]Man(b1-4)GlcNAc(b1-4)GlcNAc
# Summary of the method: as §1
# [42] = target: Neu5Ac(a2-6)Gal(b1-4)GlcNAc(b1-2)Man(a1-3)[GlcNAc(b1-2)Man(a1-6)]Man(b1-4)GlcNAc(b1-4)GlcNAc
# Summary of the method: as §1
binder,measurement,setting,value
"rAAL-H59Q (Agrocybe aegerita), Q6WY08 (protein) MQGVNIYNISAGTSVDLAAPVTTGDIVTFFSSALNLNAGAGNPNNTTLNLFAENGAYLLQIAFRLQENVIIFNSRQPDGPWLVEQRVSDVANQFAGIDGKAMVTVFDHGDKYQVVINEKTVIQYTKQISGLTLSLSYNATEETSIFSTVVEAVTYTGLALEHHHHHH",glycan array binding signal (z-score),[1],-0.096
same,glycan array binding signal (z-score),[2],-0.13
same,glycan array binding signal (z-score),[3],-0.016
same,glycan array binding signal (z-score),[4],-0.083
same,glycan array binding signal (z-score),[5],-0.132
same,glycan array binding signal (z-score),[6],-0.069
same,glycan array binding signal (z-score),[7],-0.012
same,glycan array binding signal (z-score),[8],-0.086
same,glycan array binding signal (z-score),[9],-0.128
same,glycan array binding signal (z-score),[10],-0.029
same,glycan array binding signal (z-score),[11],-0.14
same,glycan array binding signal (z-score),[12],-0.096
same,glycan array binding signal (z-score),[13],-0.009
same,glycan array binding signal (z-score),[14],-0.092
same,glycan array binding signal (z-score),[15],-0.092
same,glycan array binding signal (z-score),[16],-0.097
same,glycan array binding signal (z-score),[17],-0.11
same,glycan array binding signal (z-score),[18],-0.035
same,glycan array binding signal (z-score),[19],-0.185
same,glycan array binding signal (z-score),[20],-0.086
same,glycan array binding signal (z-score),[21],-0.137
same,glycan array binding signal (z-score),[22],-0.092
same,glycan array binding signal (z-score),[23],-0.051
same,glycan array binding signal (z-score),[24],-0.017
same,glycan array binding signal (z-score),[25],-0.069
same,glycan array binding signal (z-score),[26],0.246
same,glycan array binding signal (z-score),[27],-0.104
same,glycan array binding signal (z-score),[28],0.025
same,glycan array binding signal (z-score),[29],-0.122
same,glycan array binding signal (z-score),[30],-0.123
same,glycan array binding signal (z-score),[31],-0.117
same,glycan array binding signal (z-score),Neu5Ac(a2-3)GalNAc,-0.054
same,glycan array binding signal (z-score),[32],-0.077
same,glycan array binding signal (z-score),[33],-0.088
same,glycan array binding signal (z-score),[34],-0.1
same,glycan array binding signal (z-score),[35],-0.084
same,glycan array binding signal (z-score),[36],-0.128
same,glycan array binding signal (z-score),Neu5Ac(a2-6)Gal,-0.092
same,glycan array binding signal (z-score),[37],-0.134
same,glycan array binding signal (z-score),Neu5Ac(a2-6)Gal(b1-4)Glc,-0.035
same,glycan array binding signal (z-score),[38],-0.081
same,glycan array binding signal (z-score),[39],-0.037
same,glycan array binding signal (z-score),[40],-0.073
same,glycan array binding signal (z-score),[41],-0.067
same,glycan array binding signal (z-score),[42],-0.09
